# This is one part of the list.
# Key:
# Test in all cases: glycan array binding signal (z-score within array); higher = stronger binding
# Settings in all cases: glycan notation: IUPAC condensed, linker removed
# Gal6S(b1-4)Glc = molecular target: Gal6S(b1-4)Glc
# Method in brief: (§1)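 The binding signal is a Z-score computed within each array. Data were drawn from 3228 arrays in the Consortium for Functional Glycomics database, restricted to those with a known protein sequence. Scores were averaged over arrays of the same protein sequence at different concentrations or buffers, and over linkers, and negative values can be taken as non-binding.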
# Gal6S(b1-4)Glc6S = molecular target: Gal6S(b1-4)Glc6S
# Method in brief: as §1
# Gal6S(b1-4)GlcNAc = molecular target: Gal6S(b1-4)GlcNAc
# Method in brief: as §1
# Gal6S(b1-4)GlcNAc6S = molecular target: Gal6S(b1-4)GlcNAc6S
# Method in brief: as §1
# GalNAc(a1-3)Gal = molecular target: GalNAc(a1-3)Gal
# Method in brief: as §1
# GalNAc(a1-3)GalNAc = molecular target: GalNAc(a1-3)GalNAc
# Method in brief: as §1
# [1] = molecular target: GalNAc(a1-3)GalNAc(b1-3)Gal(a1-4)Gal(b1-4)Glc
# Method in brief: as §1
# [2] = molecular target: GalNAc(a1-3)GalNAc(b1-3)Gal(a1-4)Gal(b1-4)GlcNAc
# Method in brief: as §1
# GalNAc(b1-3)Gal = molecular target: GalNAc(b1-3)Gal
# Method in brief: as §1
# [3] = molecular target: GalNAc(b1-3)Gal(a1-4)Gal(b1-4)GlcNAc
# Method in brief: as §1
# [4] = molecular target: GalNAc(b1-3)Gal(a1-4)Gal(b1-4)GlcNAc(b1-3)Gal(b1-4)Glc
# Method in brief: as §1
# [5] = molecular target: GalNAc(b1-3)Gal(a1-6)Gal(b1-4)Glc
# Method in brief: as §1
# GalNAc(b1-3)GalNAc = molecular target: GalNAc(b1-3)GalNAc
# Method in brief: as §1
# GalNAc(b1-3)GlcNAc = molecular target: GalNAc(b1-3)GlcNAc
# Method in brief: as §1
# GalNAc(b1-4)Gal(b1-4)Glc = molecular target: GalNAc(b1-4)Gal(b1-4)Glc
# Method in brief: as §1
# GalNAc(b1-4)GlcNAc = molecular target: GalNAc(b1-4)GlcNAc
# Method in brief: as §1
# [6] = molecular target: GalNAc(b1-4)GlcNAc(b1-2)Man
# Method in brief: as §1
# [7] = molecular target: GalNAc(b1-4)GlcNAc(b1-2)Man(a1-3)[GalNAc(b1-4)GlcNAc(b1-2)Man(a1-6)]Man(b1-4)GlcNAc(b1-4)GlcNAc
# Method in brief: as §1
# [8] = molecular target: GalNAc(b1-4)GlcNAc(b1-3)GalNAc(b1-4)GlcNAc
# Method in brief: as §1
# GalNAc(b1-4)GlcNAc6S = molecular target: GalNAc(b1-4)GlcNAc6S
# Method in brief: as §1
# GalNAc(b1-6)GalNAc = molecular target: GalNAc(b1-6)GalNAc
# Method in brief: as §1
# GalNAc3S(b1-4)GlcNAc = molecular target: GalNAc3S(b1-4)GlcNAc
# Method in brief: as §1
# GalNAc3S(b1-4)GlcNAc3S = molecular target: GalNAc3S(b1-4)GlcNAc3S
# Method in brief: as §1
# [9] = molecular target: GalNAc3S(b1-4)[Fuc(a1-3)]GlcNAc
# Method in brief: as §1
# GalNAc4S6S(b1-4)GlcNAc = molecular target: GalNAc4S6S(b1-4)GlcNAc
# Method in brief: as §1
# GalNAc6S(b1-4)GlcNAc = molecular target: GalNAc6S(b1-4)GlcNAc
# Method in brief: as §1
# Glc(a1-4)Glc = molecular target: Glc(a1-4)Glc
# Method in brief: as §1
# [10] = molecular target: Glc(a1-4)Glc(a1-4)Glc(a1-4)Glc
# Method in brief: as §1
# Glc(a1-6)Glc(a1-6)Glc = molecular target: Glc(a1-6)Glc(a1-6)Glc
# Method in brief: as §1
# [11] = molecular target: Glc(a1-6)Glc(a1-6)Glc(a1-6)Glc
# Method in brief: as §1
# Glc(b1-4)Glc = molecular target: Glc(b1-4)Glc
# Method in brief: as §1
# Glc(b1-6)Glc = molecular target: Glc(b1-6)Glc
# Method in brief: as §1
# GlcA(b1-3)Gal = molecular target: GlcA(b1-3)Gal
# Method in brief: as §1
# GlcA(b1-3)GlcNAc = molecular target: GlcA(b1-3)GlcNAc
# Method in brief: as §1
# GlcA(b1-6)Gal = molecular target: GlcA(b1-6)Gal
# Method in brief: as §1
# [12] = molecular target: GlcA3S(b1-3)Gal(b1-4)GlcNAc(b1-2)Man
# Method in brief: as §1
# [13] = molecular target: GlcA3S(b1-3)Gal(b1-4)GlcNAc(b1-3)Gal(b1-4)Glc
# Method in brief: as §1
# [14] = molecular target: GlcNAc(a1-3)Gal(b1-4)GlcNAc
# Method in brief: as §1
# [15] = molecular target: GlcNAc(a1-4)Gal(b1-3)GlcNAc
# Method in brief: as §1
# [16] = molecular target: GlcNAc(a1-4)Gal(b1-4)GalNAc
# Method in brief: as §1
# [17] = molecular target: GlcNAc(a1-4)Gal(b1-4)GlcNAc
# Method in brief: as §1
# [18] = molecular target: GlcNAc(a1-4)Gal(b1-4)GlcNAc(b1-3)Gal(b1-4)Glc
# Method in brief: as §1
# [19] = molecular target: GlcNAc(a1-4)Gal(b1-4)GlcNAc(b1-3)Gal(b1-4)GlcNAc
# Method in brief: as §1
# [20] = molecular target: GlcNAc(a1-4)Gal(b1-4)GlcNAc(b1-3)Gal(b1-4)GlcNAc(b1-3)Gal(b1-4)GlcNAc
# Method in brief: as §1
# [21] = molecular target: GlcNAc(a1-4)Gal(b1-4)GlcNAc(b1-3)Gal(b1-4)[Fuc(a1-3)]GlcNAc(b1-3)Gal(b1-4)[Fuc(a1-3)]GlcNAc
# Method in brief: as §1
binder,measurement,setting,value
"Cp ZmpB (Clostridium perfringens), Q0TR08 (protein) MNKRKIAAIILATMITNLSATTIDVLAQELNTKNNSKVEVSHDDESHQARVSKFDLYNSDKLDAYNQEFQVSRSNIKSINNNGGKYNSSTIDKAIDGNLETHWETGKPNDANFTNEVVVTFNEITNIDRIVYSARRDSARGKGFAKEFEIYASLKDEGDDFNLVSSGEYTESTRDLVEIKFNPTDFKRLKFKFKKADQNWASAAEFMFYKEDKLNEKFNGLFTDSSMNKVSEEFNTLEKLNAFENELKDHPIYDLYKEGLNNARAILTETSENPTKATLGQITYNLNDDYNNQYRMPYKNIKAIKNNGRHYAAQNIEKAIDNDVNTYWETGTLNSSSFNNEVEVEFNDLVTLDRIVYGSRQSDLKGFAEEVYIYASRTSKGDTYKLVATGAHEATKGLVEAKFEPTEFKRVKFKFKKSKQNSATLNELMFYKPDEVYSSIPKLFTDGTMSELSEEFNSLEKINAFKEKAKNHPLYNDFNETIELAESLISNPRKEDVLELEMRGDSISEAKKRKVWNFQDWQITGLSARAGDKITVYVDVAEGDPTPTLLYKQSLTQHGGATSFQLKPGKNEITIPEINYESNGIPKDVIQGGDLFFTNYKSDSQKRAPKVRIEGASKYPVFILGKSDENEVMKELEAYVEKIKAEPKTTPNIFAVSSNKSLEFVQATYALDWYKKNNKTPKYTAEQWDQYIADAMGFWGFDNSKDVNSDFNFRIMPMVKNLSGGAFMNAGNGVIGIRPGNQDAILAANKGWGVAHELGHNFDTGGRTIVEVTNNMMPLFFESKYKTKTRITDQNIWENNTYPKVGLDDYSNNELYNKADSTHLAQLAPLWQLYLYDNTFYGKFERQFRERDFGNKNREDIYKSWVVAASDAMELDLTEFFARHGIRVDDKVKEDLAKYPKPDKKIYYLNDLAMNYKGDGFTENAKVSVSTSGSNGNIKLSFSVDDENKDNILGYEIRRDGKYVGFTSNDSFVDTKSNLDEDGVYVVTPYDRKLNTLNPIEVNALQPTLSVNPVITLALGEEFNEEEYIVAKDIKGNSLSESVKVKSSNVNTSKVGEYEVLYSLEDSKGNEYTKTSKVNVVSRKEYMSDLTPKQSSNGWGTVRKDKSISGGVIGLTRDGDFVDYNKGLGLHSNAEYVYDLEGKDYDYFESYVGVDKAMSSRPASSVIFKVLVDGEEKFNSGVMRSTTPQKYVKVDVKNAKELKLIVNDAGDGDSSDHASFGDAKLATLSSKPIIKGENLAYSMDEKVDLMKGITATDIEDGNITSKVQIKSSDFVEGKSGIFTVVYSVTDSDGLTSECSRTIAVTDKETQLSDLNWKSATIGSGSVRKDRAVSGNQIRLLNEDNSVETFAKGIGTHSYSEIVYNSEGYDIFDTWVGIDRHVADKKVSSVKFKVYVDGELKAETDVMRIDTPKKRLVVDVRNSKEIKLVVDVADNGNNWDHADWADAKFRNLAEYDASELNKAIEEAKKLDLNNYTEESSEALKNAISKGEEALLSKDKETINSALEELNKEMNSLVKVDLNAVINIPDKYLLKSIQNQLNKTGDITLGDMYSLTTLTLSGVEDLTGLENAKNLETLNMDYNEVKDLRPLSKLKKLNTLNAQEQFIAAGELKPSNGKVIGDSKVYNREGKNVAKTIRVVDKNGNTILEQDAKDEFTINTKDLSSGLYGVHVLFEDEGFSGVMFYLFNV",glycan array binding signal (z-score),Gal6S(b1-4)Glc,-0.137
same,glycan array binding signal (z-score),Gal6S(b1-4)Glc6S,0.546
same,glycan array binding signal (z-score),Gal6S(b1-4)GlcNAc,-0.267
same,glycan array binding signal (z-score),Gal6S(b1-4)GlcNAc6S,0.512
same,glycan array binding signal (z-score),GalNAc(a1-3)Gal,0.069
same,glycan array binding signal (z-score),GalNAc(a1-3)GalNAc,-0.2
same,glycan array binding signal (z-score),[1],-0.174
same,glycan array binding signal (z-score),[2],-0.396
same,glycan array binding signal (z-score),GalNAc(b1-3)Gal,0.101
same,glycan array binding signal (z-score),[3],0.465
same,glycan array binding signal (z-score),[4],0.209
same,glycan array binding signal (z-score),[5],0.111
same,glycan array binding signal (z-score),GalNAc(b1-3)GalNAc,-0.273
same,glycan array binding signal (z-score),GalNAc(b1-3)GlcNAc,-0.476
same,glycan array binding signal (z-score),GalNAc(b1-4)Gal(b1-4)Glc,-0.224
same,glycan array binding signal (z-score),GalNAc(b1-4)GlcNAc,0.042
same,glycan array binding signal (z-score),[6],-0.369
same,glycan array binding signal (z-score),[7],0.667
same,glycan array binding signal (z-score),[8],0.029
same,glycan array binding signal (z-score),GalNAc(b1-4)GlcNAc6S,-0.391
same,glycan array binding signal (z-score),GalNAc(b1-6)GalNAc,-0.526
same,glycan array binding signal (z-score),GalNAc3S(b1-4)GlcNAc,-0.219
same,glycan array binding signal (z-score),GalNAc3S(b1-4)GlcNAc3S,0.284
same,glycan array binding signal (z-score),[9],-0.162
same,glycan array binding signal (z-score),GalNAc4S6S(b1-4)GlcNAc,-0.231
same,glycan array binding signal (z-score),GalNAc6S(b1-4)GlcNAc,0.23
same,glycan array binding signal (z-score),Glc(a1-4)Glc,-0.107
same,glycan array binding signal (z-score),[10],0.367
same,glycan array binding signal (z-score),Glc(a1-6)Glc(a1-6)Glc,-0.335
same,glycan array binding signal (z-score),[11],-0.3
same,glycan array binding signal (z-score),Glc(b1-4)Glc,-0.26
same,glycan array binding signal (z-score),Glc(b1-6)Glc,0.35
same,glycan array binding signal (z-score),GlcA(b1-3)Gal,-0.216
same,glycan array binding signal (z-score),GlcA(b1-3)GlcNAc,-0.351
same,glycan array binding signal (z-score),GlcA(b1-6)Gal,0.493
same,glycan array binding signal (z-score),[12],0.403
same,glycan array binding signal (z-score),[13],-0.037
same,glycan array binding signal (z-score),[14],-0.366
same,glycan array binding signal (z-score),[15],-0.284
same,glycan array binding signal (z-score),[16],0.223
same,glycan array binding signal (z-score),[17],-0.001
same,glycan array binding signal (z-score),[18],-0.14
same,glycan array binding signal (z-score),[19],-0.144
same,glycan array binding signal (z-score),[20],0.055
same,glycan array binding signal (z-score),[21],0.88

# From the supplement of paper PMC8728848
